Reference: article PMC3973303
No constants are given. Whether binding was seen depends on the method and setting. For some assays here: Binding seen in cells or lysates may run through a third protein. Some entries that bind do so weakly or less than the wild type. For some assays here: Sequences can lack the tags named with a protein. One block for each molecule: values may come before it.

Amino acid sequences for entries named in this document (tags omitted).
UniProt P09651: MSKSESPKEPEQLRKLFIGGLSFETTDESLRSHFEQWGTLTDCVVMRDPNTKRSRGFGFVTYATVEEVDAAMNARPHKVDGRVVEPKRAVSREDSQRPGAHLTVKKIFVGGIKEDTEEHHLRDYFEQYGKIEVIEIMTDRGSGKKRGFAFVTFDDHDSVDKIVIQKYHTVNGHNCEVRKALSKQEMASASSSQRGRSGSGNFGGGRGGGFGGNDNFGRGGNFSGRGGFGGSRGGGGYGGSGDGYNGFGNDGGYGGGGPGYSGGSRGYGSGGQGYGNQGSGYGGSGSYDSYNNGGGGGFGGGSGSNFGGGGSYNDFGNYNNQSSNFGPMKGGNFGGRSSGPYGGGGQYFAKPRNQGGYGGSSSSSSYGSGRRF
UniProt Q9H814: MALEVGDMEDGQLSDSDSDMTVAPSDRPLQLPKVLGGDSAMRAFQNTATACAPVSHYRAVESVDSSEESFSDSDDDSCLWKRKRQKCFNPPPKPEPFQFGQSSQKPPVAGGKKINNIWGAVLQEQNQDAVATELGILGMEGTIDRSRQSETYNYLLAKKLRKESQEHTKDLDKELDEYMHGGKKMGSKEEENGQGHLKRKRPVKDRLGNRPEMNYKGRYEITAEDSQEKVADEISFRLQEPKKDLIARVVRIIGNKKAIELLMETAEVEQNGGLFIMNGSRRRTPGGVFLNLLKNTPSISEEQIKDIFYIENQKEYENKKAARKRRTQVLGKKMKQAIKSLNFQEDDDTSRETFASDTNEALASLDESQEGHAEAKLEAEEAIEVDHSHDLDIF
UniProt O14980: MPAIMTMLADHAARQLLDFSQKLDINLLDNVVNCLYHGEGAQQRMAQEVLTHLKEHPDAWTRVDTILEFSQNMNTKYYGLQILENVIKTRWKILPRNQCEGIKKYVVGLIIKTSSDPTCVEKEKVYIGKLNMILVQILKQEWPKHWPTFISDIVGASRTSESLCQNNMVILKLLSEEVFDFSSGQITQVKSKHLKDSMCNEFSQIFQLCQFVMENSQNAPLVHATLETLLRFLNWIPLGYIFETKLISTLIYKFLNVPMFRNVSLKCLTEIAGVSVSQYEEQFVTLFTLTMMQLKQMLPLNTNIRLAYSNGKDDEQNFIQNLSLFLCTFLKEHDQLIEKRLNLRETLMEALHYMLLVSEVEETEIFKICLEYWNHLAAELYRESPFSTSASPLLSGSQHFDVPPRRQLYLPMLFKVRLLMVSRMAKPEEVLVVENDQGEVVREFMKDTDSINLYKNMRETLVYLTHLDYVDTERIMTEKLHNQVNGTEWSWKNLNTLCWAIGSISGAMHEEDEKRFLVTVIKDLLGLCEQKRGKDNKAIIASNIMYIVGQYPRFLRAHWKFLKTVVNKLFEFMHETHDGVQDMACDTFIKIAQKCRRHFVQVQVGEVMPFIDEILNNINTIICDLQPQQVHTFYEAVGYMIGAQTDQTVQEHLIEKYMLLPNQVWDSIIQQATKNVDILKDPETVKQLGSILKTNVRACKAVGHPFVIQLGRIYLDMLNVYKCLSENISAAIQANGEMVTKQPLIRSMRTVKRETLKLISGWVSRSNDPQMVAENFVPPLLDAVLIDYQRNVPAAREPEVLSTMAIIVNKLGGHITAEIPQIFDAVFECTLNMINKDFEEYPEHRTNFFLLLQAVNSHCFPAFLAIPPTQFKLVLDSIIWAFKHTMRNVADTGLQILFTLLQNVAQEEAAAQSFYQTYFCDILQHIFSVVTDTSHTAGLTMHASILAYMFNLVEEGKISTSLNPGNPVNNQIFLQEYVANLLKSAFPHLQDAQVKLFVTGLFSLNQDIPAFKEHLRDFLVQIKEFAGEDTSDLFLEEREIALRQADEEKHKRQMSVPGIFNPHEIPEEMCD

What was measured:
recombinant hnRNP A1 = recombinant hnRNP A1 (UniProt P09651); assay: co-IP; purified recombinant proteins (20 μg) rotated with Protein A Sepharose beads pre-bound with anti-p54nrb, anti-PSF or anti-Myc, with 1 mg/ml RNase A in 150 μl RSB150N buffer (10 mM Tris-Cl pH 7.5, 150 mM NaCl, 2.5 mM MgCl2, 0.1% NP-40); western blotting; both purified
[1] = target: T1, recombinant human p54nrb/NonO (human) (UniProt Q15233); assay: as above
T1 sequence: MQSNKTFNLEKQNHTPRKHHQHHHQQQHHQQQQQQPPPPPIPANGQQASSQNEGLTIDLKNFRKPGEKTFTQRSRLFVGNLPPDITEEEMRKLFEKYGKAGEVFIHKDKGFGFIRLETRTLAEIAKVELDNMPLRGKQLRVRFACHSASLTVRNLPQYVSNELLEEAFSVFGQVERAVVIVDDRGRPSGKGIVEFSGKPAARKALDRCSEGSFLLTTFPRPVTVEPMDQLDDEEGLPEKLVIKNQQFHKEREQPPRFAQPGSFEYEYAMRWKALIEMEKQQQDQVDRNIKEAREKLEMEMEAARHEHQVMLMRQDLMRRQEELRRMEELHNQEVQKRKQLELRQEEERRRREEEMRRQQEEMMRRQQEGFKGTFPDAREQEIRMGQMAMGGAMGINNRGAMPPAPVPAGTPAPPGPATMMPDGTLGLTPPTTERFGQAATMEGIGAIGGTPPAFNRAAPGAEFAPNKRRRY

[2] = target: T2, recombinant human PSF with N-terminal His-tags (human) (UniProt P23246); assay: as above
T2 sequence: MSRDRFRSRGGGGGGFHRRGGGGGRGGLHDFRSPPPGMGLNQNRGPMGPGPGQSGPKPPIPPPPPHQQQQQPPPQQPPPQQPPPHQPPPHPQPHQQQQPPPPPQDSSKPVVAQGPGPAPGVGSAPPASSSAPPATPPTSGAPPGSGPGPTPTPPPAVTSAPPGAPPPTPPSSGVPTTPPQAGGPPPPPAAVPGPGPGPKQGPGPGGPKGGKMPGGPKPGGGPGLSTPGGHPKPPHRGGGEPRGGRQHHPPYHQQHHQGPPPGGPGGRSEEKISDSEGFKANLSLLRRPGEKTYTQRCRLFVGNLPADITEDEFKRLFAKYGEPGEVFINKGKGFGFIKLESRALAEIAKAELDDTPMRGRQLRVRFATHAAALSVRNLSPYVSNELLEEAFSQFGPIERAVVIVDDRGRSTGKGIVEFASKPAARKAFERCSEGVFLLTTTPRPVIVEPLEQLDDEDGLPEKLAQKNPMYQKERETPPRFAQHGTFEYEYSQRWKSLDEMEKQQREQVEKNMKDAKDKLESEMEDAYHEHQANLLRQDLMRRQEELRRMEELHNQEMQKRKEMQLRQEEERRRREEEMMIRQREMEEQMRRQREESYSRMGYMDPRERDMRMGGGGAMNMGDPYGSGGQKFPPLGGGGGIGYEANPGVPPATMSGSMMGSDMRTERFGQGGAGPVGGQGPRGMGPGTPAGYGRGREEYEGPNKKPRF

[3] = target: GST-PHAX fusion protein (phosphorylated adaptor for RNA export) (UniProt Q9H814); assay: pull-down; GST-PHAX or GST (0.2 µM each) mixed with p54nrb or PSF in the absence or presence of RNase A; GST pull-down, precipitate analysed by western blotting; both purified
flag-tagged PHAX = flag-tagged PHAX (UniProt Q9H814); assay: co-IP; FLAG-PHAX transiently expressed in HeLa cells, fixed with 1% formaldehyde, lysed in mRIPA buffer by sonication; anti-FLAG M2 affinity gel, 2 h at 4°C; western blotting

- binding [1]: binds
- binding [2]: binds
Molecule: recombinant CRM1 (from UniProt O14980 1-1071)
- binding (recombinant hnRNP A1): no binding (tested: 20 μg protein in 150 μl)

- binding [3]: binds
B1: recombinant human p54nrb/NonO (protein, UniProt Q15233 1-471)
chain: MQSNKTFNLEKQNHTPRKHHQHHHQQQHHQQQQQQPPPPPIPANGQQASSQNEGLTIDLKNFRKPGEKTFTQRSRLFVGNLPPDITEEEMRKLFEKYGKAGEVFIHKDKGFGFIRLETRTLAEIAKVELDNMPLRGKQLRVRFACHSASLTVRNLPQYVSNELLEEAFSVFGQVERAVVIVDDRGRPSGKGIVEFSGKPAARKALDRCSEGSFLLTTFPRPVTVEPMDQLDDEEGLPEKLVIKNQQFHKEREQPPRFAQPGSFEYEYAMRWKALIEMEKQQQDQVDRNIKEAREKLEMEMEAARHEHQVMLMRQDLMRRQEELRRMEELHNQEVQKRKQLELRQEEERRRREEEMRRQQEEMMRRQQEGFKGTFPDAREQEIRMGQMAMGGAMGINNRGAMPPAPVPAGTPAPPGPATMMPDGTLGLTPPTTERFGQAATMEGIGAIGGTPPAFNRAAPGAEFAPNKRRRY

- binding (flag-tagged PHAX): binds
B2: endogenous p54nrb/NonO (HeLa) (protein, UniProt Q15233 1-471)
chain: MQSNKTFNLEKQNHTPRKHHQHHHQQQHHQQQQQQPPPPPIPANGQQASSQNEGLTIDLKNFRKPGEKTFTQRSRLFVGNLPPDITEEEMRKLFEKYGKAGEVFIHKDKGFGFIRLETRTLAEIAKVELDNMPLRGKQLRVRFACHSASLTVRNLPQYVSNELLEEAFSVFGQVERAVVIVDDRGRPSGKGIVEFSGKPAARKALDRCSEGSFLLTTFPRPVTVEPMDQLDDEEGLPEKLVIKNQQFHKEREQPPRFAQPGSFEYEYAMRWKALIEMEKQQQDQVDRNIKEAREKLEMEMEAARHEHQVMLMRQDLMRRQEELRRMEELHNQEVQKRKQLELRQEEERRRREEEMRRQQEEMMRRQQEGFKGTFPDAREQEIRMGQMAMGGAMGINNRGAMPPAPVPAGTPAPPGPATMMPDGTLGLTPPTTERFGQAATMEGIGAIGGTPPAFNRAAPGAEFAPNKRRRY
